Experimental data taken from the supplement of paper PMC8728848.
Some of the results follow.

Columns and labels:
Assay in all cases: glycan array binding signal (z-score within array); higher = stronger binding
Details in all cases: glycan notation: IUPAC condensed, linker removed
[1] = biological target: Neu5Ac(a2-6)Gal(b1-4)GlcNAc(b1-2)Man(a1-3)[GlcNAc(b1-2)Man(a1-6)]Man(b1-4)GlcNAc(b1-4)GlcNAc
In short: (§1)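 Arrays were curated from the Consortium for Functional Glycomics database, 3228 in total, and kept only where the protein sequence was available. Binding is expressed as a within-array Z-score. This score was averaged across arrays of the same protein sequence at different concentrations or buffers and across linkers, and negative values can be read as non-binding.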

[2] = biological target: Neu5Ac(a2-6)Gal(b1-4)GlcNAc(b1-2)Man(a1-3)[GlcNAc(b1-2)Man(b1-4)GlcNAc(b1-2)Man(a1-6)]Man(b1-4)GlcNAc(b1-4)GlcNAc
In short: as §1

[3] = biological target: Neu5Ac(a2-6)Gal(b1-4)GlcNAc(b1-2)Man(a1-3)[Man(a1-6)]Man(b1-4)GlcNAc(b1-4)GlcNAc
In short: as §1

[4] = biological target: Neu5Ac(a2-6)Gal(b1-4)GlcNAc(b1-2)Man(a1-3)[Neu5Ac(a2-6)Gal(b1-4)GlcNAc(b1-2)Man(a1-6)]Man(b1-4)GlcNAc(b1-4)GlcNAc
In short: as §1

[5] = biological target: Neu5Ac(a2-6)Gal(b1-4)GlcNAc(b1-2)Man(a1-6)Man(b1-4)GlcNAc(b1-4)GlcNAc
In short: as §1

[6] = biological target: Neu5Ac(a2-6)Gal(b1-4)GlcNAc(b1-2)Man(a1-6)[Gal(b1-4)GlcNAc(b1-2)Man(a1-3)]Man(b1-4)GlcNAc(b1-4)GlcNAc
In short: as §1

[7] = biological target: Neu5Ac(a2-6)Gal(b1-4)GlcNAc(b1-2)Man(a1-6)[GlcNAc(b1-2)Man(a1-3)]Man(b1-4)GlcNAc(b1-4)GlcNAc
In short: as §1

[8] = biological target: Neu5Ac(a2-6)Gal(b1-4)GlcNAc(b1-2)Man(a1-6)[Man(a1-3)]Man(b1-4)GlcNAc(b1-4)GlcNAc
In short: as §1

[9] = biological target: Neu5Ac(a2-6)Gal(b1-4)GlcNAc(b1-3)Gal(b1-3)GlcNAc
In short: as §1

[10] = biological target: Neu5Ac(a2-6)Gal(b1-4)GlcNAc(b1-3)Gal(b1-4)GlcNAc
In short: as §1

[11] = biological target: Neu5Ac(a2-6)Gal(b1-4)GlcNAc(b1-3)Gal(b1-4)GlcNAc(b1-3)Gal(b1-4)GlcNAc
In short: as §1

[12] = biological target: Neu5Ac(a2-6)Gal(b1-4)GlcNAc(b1-3)Gal(b1-4)[Fuc(a1-3)]GlcNAc(b1-3)Gal(b1-4)[Fuc(a1-3)]GlcNAc
In short: as §1

[13] = biological target: Neu5Ac(a2-6)Gal(b1-4)GlcNAc(b1-3)GalNAc
In short: as §1

[14] = biological target: Neu5Ac(a2-6)Gal(b1-4)GlcNAc6S
In short: as §1

Neu5Ac(a2-6)GalNAc = biological target: Neu5Ac(a2-6)GalNAc
In short: as §1

[15] = biological target: Neu5Ac(a2-6)GalNAc(b1-4)GlcNAc
In short: as §1

[16] = biological target: Neu5Ac(a2-6)GlcNAc(b1-4)GlcNAc
In short: as §1

[17] = biological target: Neu5Ac(a2-6)GlcNAc(b1-4)GlcNAc(b1-4)GlcNAc
In short: as §1

Neu5Ac(a2-8)Neu5Ac = biological target: Neu5Ac(a2-8)Neu5Ac
In short: as §1

[18] = biological target: Neu5Ac(a2-8)Neu5Ac(a2-3)Gal(b1-3)GalNAc(b1-4)[Neu5Ac(a2-8)Neu5Ac(a2-3)]Gal(b1-4)Glc
In short: as §1

[19] = biological target: Neu5Ac(a2-8)Neu5Ac(a2-3)Gal(b1-4)Glc
In short: as §1

[20] = biological target: Neu5Ac(a2-8)Neu5Ac(a2-3)[Gal(b1-3)GalNAc(b1-4)]Gal(b1-4)Glc
In short: as §1

[21] = biological target: Neu5Ac(a2-8)Neu5Ac(a2-3)[GalNAc(b1-4)]Gal(b1-4)Glc
In short: as §1

[22] = biological target: Neu5Ac(a2-8)Neu5Ac(a2-8)Neu5Ac
In short: as §1

[23] = biological target: Neu5Ac(a2-8)Neu5Ac(a2-8)Neu5Ac(a2-3)Gal(b1-4)Glc
In short: as §1

[24] = biological target: Neu5Ac(a2-8)Neu5Ac(a2-8)Neu5Ac(a2-3)[GalNAc(b1-4)]Gal(b1-4)Glc
In short: as §1

[25] = biological target: Neu5Ac(a2-8)Neu5Ac(a2-8)Neu5Ac(a2-8)Neu5Ac(a2-3)[GalNAc(b1-4)]Gal(b1-4)Glc
In short: as §1

[26] = biological target: Neu5Ac(b2-6)Gal(b1-4)GlcNAc
In short: as §1

Neu5Ac(b2-6)GalNAc = biological target: Neu5Ac(b2-6)GalNAc
In short: as §1

[27] = biological target: Neu5Ac9Ac(a2-3)Gal(b1-3)GlcNAc
In short: as §1

[28] = biological target: Neu5Ac9Ac(a2-3)Gal(b1-4)GlcNAc
In short: as §1

[29] = biological target: Neu5Ac9Ac(a2-6)Gal(b1-4)GlcNAc
In short: as §1

[30] = biological target: Neu5Gc(a2-3)Gal(b1-3)GlcNAc
In short: as §1

[31] = biological target: Neu5Gc(a2-3)Gal(b1-3)[Fuc(a1-4)]GlcNAc
In short: as §1

Neu5Gc(a2-3)Gal(b1-4)Glc = biological target: Neu5Gc(a2-3)Gal(b1-4)Glc
In short: as §1

[32] = biological target: Neu5Gc(a2-3)Gal(b1-4)GlcNAc
In short: as §1

[33] = biological target: Neu5Gc(a2-3)Gal(b1-4)[Fuc(a1-3)]GlcNAc
In short: as §1

[34] = biological target: Neu5Gc(a2-6)Gal(b1-4)GlcNAc
In short: as §1

Neu5Gc(a2-6)GalNAc = biological target: Neu5Gc(a2-6)GalNAc
In short: as §1

[35] = biological target: Neu5Gc(b2-6)Gal(b1-4)GlcNAc
In short: as §1

B1: PpFlo3 (Pichia pastoris) (protein)
chain: MGSSHHHHHHSSGLVPRGSHMQESGNGTTSDTAYACDIGATPFDGFNATIYQYQASDDNSIQDPVFMSTGYLQRNQLHSTTGVTNPGFNIFTAGVATTTLYGIPNVNYQNMLLELKGYFRADASGNYGLSLRNIDDSAILFFGRETAFECCNENLIPLDEAPTDYSLFTIKEGEASTNPDSYTYTQYLEAGRYYPVRTFFANIRTRAVFNFTMTLPDGSELTDFQNYIFQFGALNQ
[1]
  glycan array binding signal (z-score): -0.275
[2]
  glycan array binding signal (z-score): -0.266
[3]
  glycan array binding signal (z-score): -0.281
[4]
  glycan array binding signal (z-score): -0.225
[5]
  glycan array binding signal (z-score): -0.261
[6]
  glycan array binding signal (z-score): -0.11
[7]
  glycan array binding signal (z-score): 4.82
[8]
  glycan array binding signal (z-score): -0.242
[9]
  glycan array binding signal (z-score): -0.267
[10]
  glycan array binding signal (z-score): -0.214
[11]
  glycan array binding signal (z-score): -0.219
[12]
  glycan array binding signal (z-score): -0.286
[13]
  glycan array binding signal (z-score): -0.27
[14]
  glycan array binding signal (z-score): -0.269
Neu5Ac(a2-6)GalNAc
  glycan array binding signal (z-score): -0.282
[15]
  glycan array binding signal (z-score): -0.293
[16]
  glycan array binding signal (z-score): -0.261
[17]
  glycan array binding signal (z-score): -0.272
Neu5Ac(a2-8)Neu5Ac
  glycan array binding signal (z-score): -0.238
[18]
  glycan array binding signal (z-score): -0.017
[19]
  glycan array binding signal (z-score): -0.255
[20]
  glycan array binding signal (z-score): -0.279
[21]
  glycan array binding signal (z-score): -0.223
[22]
  glycan array binding signal (z-score): -0.257
[23]
  glycan array binding signal (z-score): -0.222
[24]
  glycan array binding signal (z-score): -0.274
[25]
  glycan array binding signal (z-score): -0.171
[26]
  glycan array binding signal (z-score): 0.318
Neu5Ac(b2-6)GalNAc
  glycan array binding signal (z-score): -0.261
[27]
  glycan array binding signal (z-score): -0.267
[28]
  glycan array binding signal (z-score): 1.02
[29]
  glycan array binding signal (z-score): -0.283
[30]
  glycan array binding signal (z-score): -0.234
[31]
  glycan array binding signal (z-score): -0.272
Neu5Gc(a2-3)Gal(b1-4)Glc
  glycan array binding signal (z-score): -0.276
[32]
  glycan array binding signal (z-score): -0.275
[33]
  glycan array binding signal (z-score): -0.244
[34]
  glycan array binding signal (z-score): -0.229
Neu5Gc(a2-6)GalNAc
  glycan array binding signal (z-score): -0.284
[35]
  glycan array binding signal (z-score): -0.24
